Over roughly 33,000 sequences, “E-score (-0.5 to 0.5)” has its median near -0.035; the highest 2% begin near 0.35. The list shows a part of the results.
molecular target: T1, Pdr3 (UniProt P33200); assay: PBM E-score (8-mer binding enrichment) (E-score (-0.5 to 0.5)); higher = stronger / more preferred TF binding; most listed sequences are background and not binding sites; conditions: protein concentration: 200 nM; construct: GST-full length
T1 sequence: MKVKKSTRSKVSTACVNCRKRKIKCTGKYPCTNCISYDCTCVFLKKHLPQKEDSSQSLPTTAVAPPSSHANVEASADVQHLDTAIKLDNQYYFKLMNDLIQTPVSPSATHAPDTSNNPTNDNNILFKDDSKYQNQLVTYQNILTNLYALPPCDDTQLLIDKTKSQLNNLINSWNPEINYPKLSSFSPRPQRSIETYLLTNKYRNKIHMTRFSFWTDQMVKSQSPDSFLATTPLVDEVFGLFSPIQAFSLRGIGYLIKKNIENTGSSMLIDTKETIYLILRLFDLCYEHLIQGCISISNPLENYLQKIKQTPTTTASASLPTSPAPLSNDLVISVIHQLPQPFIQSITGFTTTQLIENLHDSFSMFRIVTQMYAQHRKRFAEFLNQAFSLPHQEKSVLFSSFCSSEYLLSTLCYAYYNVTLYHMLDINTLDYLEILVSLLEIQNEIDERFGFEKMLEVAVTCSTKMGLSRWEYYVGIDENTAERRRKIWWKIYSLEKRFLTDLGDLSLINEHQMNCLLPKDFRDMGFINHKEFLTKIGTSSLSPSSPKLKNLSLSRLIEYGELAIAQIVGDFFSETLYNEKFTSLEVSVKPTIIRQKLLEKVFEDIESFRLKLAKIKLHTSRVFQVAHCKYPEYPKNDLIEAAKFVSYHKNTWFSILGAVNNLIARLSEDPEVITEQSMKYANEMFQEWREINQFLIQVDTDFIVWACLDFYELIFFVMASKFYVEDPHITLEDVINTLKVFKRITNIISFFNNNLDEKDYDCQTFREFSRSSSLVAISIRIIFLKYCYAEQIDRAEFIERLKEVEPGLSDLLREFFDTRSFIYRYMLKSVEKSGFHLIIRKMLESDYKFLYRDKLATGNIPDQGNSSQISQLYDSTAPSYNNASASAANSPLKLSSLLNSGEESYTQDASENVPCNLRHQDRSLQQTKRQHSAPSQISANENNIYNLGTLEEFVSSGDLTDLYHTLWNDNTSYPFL
How it was run: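 Using PURExpress in vitro transcription/translation, GST-tagged yeast transcription factors were made in full-length or DNA-binding-domain form. These were applied at about 100-200 nM to double-stranded universal all-10-mer Agilent arrays, and bound protein was detected with fluorescent anti-GST. Scans were normalised with masliner before the Universal PBM Analysis Suite assigned E-scores to ungapped eight-base words pooled with their reverse complements.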

Row | Sequence | PBM E-score
1 | CGTCGGCA | 0.244
2 | AAATCACC | 0.172
3 | GCACAGGA | 0.0864
4 | GTCAAAGA | -0.212
5 | AATCCGCT | 0.16
6 | AACTTGAA | -0.0145
7 | CTTTCTGA | -0.258
8 | AGTTATGG | -0.187
9 | CCCTTCAG | -0.173
10 | CACCGATA | 0.00215
11 | ATCTCAGA | -0.0661
12 | CCGGTGCA | 0.227
13 | AGCTGTAA | -0.292
14 | CCGGCAGG | 0.231
15 | CCTTTGAG | -0.179
16 | CTCATATC | 0.016
17 | TATGGTCA | -0.187
18 | ATGATGCC | -0.0254
19 | ATTCACGC | 0.00639
20 | GACTACGA | -0.165
21 | GAAGCCCA | -0.141
22 | GATGTACC | -0.191
23 | AACCGGGC | 0.0811
24 | CAGTTTGC | -0.0283
25 | CATAAAGG | -0.0331

Row | Sequence | PBM E-score
26 | CCTCCTAA | -0.307
27 | CAGTCTCC | 0.0366
28 | ATTGAGCC | 0.022
29 | TATAAGGA | -0.0083
30 | TAAGTAGA | -0.144
31 | CACCTAAG | -0.137
32 | GATAGACC | -0.0202
33 | ATAAAAAC | -0.0945
34 | CACCAGGC | -0.115
35 | CGGGCCAG | 0.135
36 | CTTGGGGC | 0.0478
37 | CGTAAGCA | -0.23
38 | CAGTCCAG | -0.25
39 | AGATAAAC | 0.011
40 | ACTGGACC | 0.0412
41 | GAATGTGC | -0.0536
42 | ATCATGAA | -0.03
43 | CAGCGCAA | 0.011
44 | AAGACATG | -0.319
45 | GGCCCAAA | 0.0895
46 | GACCCCAA | -0.0258
47 | ATGAGGGA | -0.101
48 | AGATGTTG | -0.0537
49 | AGTTTAAA | 0.102
50 | AGGTCGGG | 0.0139

Row | Sequence | PBM E-score
51 | GCAGAAGC | -0.0375
52 | GACGCTCA | -0.0908
53 | ACAGTTAT | -0.0775
54 | AGCTAGCA | -0.161
55 | AGCCTCTC | -0.138
56 | CCACACCG | 0.126
57 | CAGCAGCG | -0.0164
58 | CCTGCGAC | -0.182
59 | AATGCAGT | -0.109
60 | CCATGTGC | -0.0214
61 | AGCCAGGG | -0.263
62 | ACTGGATG | -0.178
63 | ATAAAATC | 0.0481
64 | ACGAGGTG | -0.0248
65 | AGTCACTA | -0.0771
66 | GCCCGTTA | -0.0259
67 | CCCCCATA | -0.309
68 | ATATGCTG | -0.159
69 | CAAGATGC | 0.0992
70 | GCAATACA | 0.146
71 | CAAGTATC | -0.0867
72 | ACATCGCA | -0.0583
73 | GCTTCGTA | -0.282
74 | CATCAGGC | -0.111
75 | ATAGGTTG | -0.198

Row | Sequence | PBM E-score
76 | ACCACGCT | -0.133
77 | GAGAGTAA | 0.157
78 | ACAATGTA | -0.0513
79 | TCACATAA | -0.0593
80 | ATCGTTAC | -0.116
81 | GCCCGAGC | 0.164
82 | AGCACGTA | -0.0777
83 | GCCCCTAA | -0.0721
84 | CAGTGTGG | -0.115
85 | CAAACTGC | -0.0535
86 | ACGCGTAC | -0.126
87 | GATACGCC | 0.163
88 | CGCATTAG | -0.159
89 | CTTACGAC | -0.192
90 | AAAGTCAG | -0.0797
91 | AAAACAAG | -0.0753
92 | CGTGCGAG | 0.158
93 | ACGGGCGC | 0.224
94 | AATTAACT | 0.0213
95 | AAGCGTAT | -0.0784
96 | AAGCGCTA | 0.0554
97 | CAGCCTAC | -0.0904
98 | CGCGGGCA | 0.397
99 | CCTCGCCG | 0.152
100 | CTCTACGC | -0.19

Row | Sequence | PBM E-score
101 | GTGCTAGA | -0.274
102 | GGAAAAAC | 0.201
103 | GGCATTCA | 0.00396
104 | GCAGTGAC | -0.022
105 | CACGCGTA | -0.118
106 | AATGCTGC | -0.138
107 | CTGTACCA | -0.15
108 | ATGACGTG | -0.0975
109 | ACGAAGCC | 0.0219
110 | GACCACGA | -0.107
111 | TCTATGCA | -0.315
112 | ACACTAAG | -0.229
113 | GAACATCC | 0.278
114 | CCCATACC | 0.0332
115 | AACTAGAT | 0.096
116 | GACGGCGC | 0.212
117 | AGCGCAAA | 0.0157
118 | ATAGTAAT | 0.187
119 | AGACCAGG | -0.0436
120 | AGTTACAA | 0.0783
121 | CGTCCTAC | 0.00947
122 | TCCTTACA | -0.0346
123 | GCCACGCA | -0.0605
124 | AAGTGTGA | -0.227
125 | ATCTGGAA | 0.0147

Row | Sequence | PBM E-score
126 | CCGTACAC | 0.0553
127 | CAAGGGGG | -0.403
128 | ACTGAACT | -0.141
129 | AGGCTGCA | -0.186
130 | GACCTATA | 0.0796
131 | CAGGTTGC | -0.0469
132 | CCGGCTAG | 0.183
133 | GGCCACCC | 0.136
134 | GGGAGAAA | -0.0138
135 | GTGTATTA | 0.0101
136 | AGTGCACT | -0.133
137 | CACATTGG | 0.00753
138 | ATCAATCA | 0.0272
139 | CGGCTGAA | 0.133
140 | ATCTGGAG | -0.0781
141 | TAGGTTGA | -0.101
142 | CCGTGTGC | 0.183
143 | GCAAGACC | 0.0414
144 | CCTTCGGC | 0.038
145 | CGCAGCCC | 0.223
146 | GGACAGCC | 0.245
147 | GGCCGACA | 0.0905
148 | AGCGGCCG | 0.265
149 | CGGCTTCC | 0.311
150 | AACCCTCA | -0.19

Row | Sequence | PBM E-score
151 | GCGCTAGC | -0.125
152 | TGCTGAAA | -0.0805
153 | AGCGCATC | -0.118
154 | CATCGCGG | 0.193
155 | ATGCCATG | -0.113
156 | CTGTCTCC | 0.218
157 | ACGCTCCT | -0.238
158 | TACAGGTA | -0.219
159 | AAATCACT | -0.108
160 | AAACCGGC | 0.283
161 | GCTTGCAC | -0.0866
162 | CCTATCAC | -0.107
163 | CGAGACGA | 0.0388
164 | GGCGCCCC | 0.125
165 | ATTAGGCA | -0.0942
166 | AGGAATAT | 0.0903
167 | CGCAGGCG | -0.0861
168 | ACGAGACC | -0.0325
169 | AGCGATAG | -0.327
170 | CCATGTTA | -0.0874
171 | CCTCGTAA | 0.0306
172 | AACTTCTA | -0.217
173 | TAATACCA | 0.131
174 | AGCGTCGG | 0.0549
175 | ACAGAGAG | -0.296

Row | Sequence | PBM E-score
176 | CCAGTTTA | -0.227
177 | CAGGGCGG | 0.165
178 | AACAACGA | -0.0839
179 | GCGGTCAC | 0.0135
180 | AGGTCACA | -0.164
181 | AATGACAA | -0.0744
182 | TAGGCGAA | -0.236
183 | AGGACCTA | 0.139
184 | AGTCTGTC | -0.22
185 | ACTAGTGG | -0.00603
186 | ATAGCAAC | -0.0447
187 | AAGAGGGA | -0.239
188 | CGACGCAA | 0.0575
189 | TCGCCGCA | 0.132
190 | AGAGACGG | 0.06
191 | AGGTGTGA | -0.138
192 | TATAGCCA | 0.0158
193 | CGGCGGCA | 0.226
194 | CGGCAGTC | 0.129
195 | CCAGTTCC | 0.318
196 | AAAGATCT | -0.0765
197 | TACTTATA | -0.14
198 | CATGTCGA | 0.0523
199 | TAATTTGA | -0.102
200 | AAACCTTT | -0.129

Row | Sequence | PBM E-score
201 | ATACGTTG | -0.168
202 | CGCATCAC | -0.0776
203 | ATCTCGCC | 0.014
204 | TCCGGCCA | 0.312
205 | ATCAATAA | -0.0512
206 | CGCTGCGC | -0.0056
207 | AAGTCGAA | -0.188
208 | CGTCAAAC | -0.156
209 | AACCGCTA | -0.14
210 | AACCAATT | 0.0667
211 | AAGCTAGT | -0.0875
212 | CTTTGAAA | -0.209
213 | TCAGTCCA | -0.407
214 | GCTGTCCA | 0.0841
215 | AACAGCAT | -0.0321
216 | ATAGGGCA | -0.0798
217 | CCATACCG | 0.058
218 | TATGAATA | -0.0242
219 | AGTACCTA | -0.111

Reference: the supplement of paper PMC3334620
